# Publication PMC5988656, “Phase I studies of AZD1208, a proviral integration Moloney virus kinase inhibitor in solid and haematological cancers” (British Journal of Cancer, 2018)
# Further values from the same series stand in other lists.
# Assay: Solid tumour dose-escalation study: pharmacokinetics (plasma, urine)
# Type: in vivo, human
# Experimental: The schedules for collection of blood and urine samples for PK analyses in each cohort in both studies are described in Supplementary Table 1. When necessary for clinical response assessment in the AML study, a bone marrow sample for PK analysis was collected at Cycle 1, Day 28.
# The concentration of AZD1208 in plasma and urine was determined by Covance, on behalf of Clinical Bioanalysis Alliance at AstraZeneca R&D, using a bioanalytical method. A volume of 0.05 ml of K2EDTA human plasma sample was extracted by liquid–liquid extraction using 0.7 ml of methyl tert-butyl ether. Approximately 100 µl of the supernatant was transferred, evaporated to dryness and reconstituted with 350 µl of 1:1 methanol:water, and a 5 µl injection was made to the high-performance liquid chromatography (HPLC) column. HPLC separations were performed on a Phenomenex LUNA C18 (50 × 2 mm, 5 µm) column using a mobile phase of 0.1% formic acid in water (A) and 0.1% formic acid in acetonitrile (B) at a flow rate of 0.6 ml/min and a column temperature of 40 °C. AZD1208-D5 was used as the internal standard. Detection was performed in a Sciex API4000 mass spectrometer, in a positive electrospray ionisation mode, using multiple reaction monitoring detection (AZD1208: 380.0–>248.1; AZD1208-D5: 385.0–>253.1).
smiles,measurement,setting,value
N[C@@H]1CCCN(c2c(/C=C3\SC(=O)NC3=O)cccc2-c2ccccc2)C1 [AZD1208],"Plasma concentration of AZD1208, Gmean","Cycle 0, Day 1, 0.25 h post-dose, 120 mg",n=3 1.793 ng ml
same,"Plasma concentration of AZD1208, Gmean","Cycle 0, Day 1, 0.25 h post-dose, 240 mg",n=7 12.83 ng ml
same,"Plasma concentration of AZD1208, Gmean","Cycle 0, Day 1, 0.25 h post-dose, 360 mg",n=6 29.51 ng ml
same,"Plasma concentration of AZD1208, Gmean","Cycle 0, Day 1, 0.25 h post-dose, 540 mg",n=7 26.29 ng ml
same,"Plasma concentration of AZD1208, Gmean","Cycle 0, Day 1, 0.5 h post-dose, 120 mg",n=3 20.28 ng ml
same,"Plasma concentration of AZD1208, Gmean","Cycle 0, Day 1, 0.5 h post-dose, 240 mg",n=7 257.5 ng ml
same,"Plasma concentration of AZD1208, Gmean","Cycle 0, Day 1, 0.5 h post-dose, 360 mg",n=6 343.5 ng ml
same,"Plasma concentration of AZD1208, Gmean","Cycle 0, Day 1, 0.5 h post-dose, 540 mg",n=7 200.2 ng ml
same,"Plasma concentration of AZD1208, Gmean","Cycle 0, Day 1, 0.5 h post-dose, 700 mg",n=6 139.2 ng ml
same,"Plasma concentration of AZD1208, Gmean","Cycle 0, Day 1, 0.5 h post-dose, 800 mg",n=6 222.3 ng ml
same,"Plasma concentration of AZD1208, Gmean","Cycle 1, Day 15, 8 h post-dose, 700 mg",n=4 2794 ng ml
same,"Plasma concentration of AZD1208, Gmean","Cycle 1, Day 15, 8 h post-dose, 800 mg",n=2 2305 ng ml
same,"Plasma concentration of AZD1208, Gmean","Cycle 1, Day 15, 24 h post-dose, 120 mg",n=3 919.5 ng ml
same,"Plasma concentration of AZD1208, Gmean","Cycle 1, Day 15, 24 h post-dose, 240 mg",n=6 624.5 ng ml
same,"Plasma concentration of AZD1208, Gmean","Cycle 1, Day 15, 24 h post-dose, 360 mg",n=3 632.8 ng ml
same,"Plasma concentration of AZD1208, Gmean","Cycle 1, Day 15, 24 h post-dose, 540 mg",n=3 459.2 ng ml
same,"Plasma concentration of AZD1208, Gmean","Cycle 1, Day 15, 24 h post-dose, 700 mg",n=4 869.7 ng ml
same,"Plasma concentration of AZD1208, Gmean","Cycle 1, Day 15, 24 h post-dose, 800 mg",n=2 929.3 ng ml
